Some of the results follow.
The sequences below were run against T1, OsWOX13 (Oryza sativa, UniProt Q5QMM3 1-267) (assay: protein-binding microarray (RPBM); PBS, 2% BSA, 51.3 ng/ul salmon testes DNA, 50 uM zinc acetate, 200 nM TF, 25 C, 1 h; high values mean tight binding). Details: protein: recombinant; tags: N-terminal polyhistidine and DsRed monomer fusion (pET32a); label: CyDye5-dUTP incorporated in the synthesized complementary strand; 3' TTTTT single-stranded linker to array surface; dsDNA, one strand shown.
T1 sequence: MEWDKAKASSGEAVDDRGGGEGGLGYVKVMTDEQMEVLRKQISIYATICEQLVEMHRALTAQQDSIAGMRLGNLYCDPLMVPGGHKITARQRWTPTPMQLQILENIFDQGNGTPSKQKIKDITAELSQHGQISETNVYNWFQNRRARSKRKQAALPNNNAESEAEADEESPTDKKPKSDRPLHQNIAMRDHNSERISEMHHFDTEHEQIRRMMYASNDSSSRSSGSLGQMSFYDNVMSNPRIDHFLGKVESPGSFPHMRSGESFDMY
In short: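 The binding signal is fluorescence intensity per array feature (arbitrary units). Readings came from an Axon 4000B scanner after a washed, 2% BSA-blocked, double-stranded custom Agilent array had been incubated for 1 h at 25 °C with 200 nM protein and 50 µM zinc acetate. The protein was a Ni–NTA-purified transcription factor fused N-terminally to polyhistidine and DsRed, expressed in E. coli BL21-CodonPlus.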

Sequence | binding signal
CAAAATTTTAATTTTATGGTGGACTAAACACACCCTTTGTCGGAGTCACCTAGTGCAG | 25500 fluorescence intensity (a.u.)
ACTAATGATGGAATTCGTTGCCCATTTTGTGATGTTGAAACGGAGTCACCTAGTGCAG | 9680 fluorescence intensity (a.u.)
TTCAGTCTAATTTGTTACATCATCAGGAACTGATTTCGTCCGGAGTCACCTAGTGCAG | 20900 fluorescence intensity (a.u.)
AGCCTAGTGATTAGTGAATGCCAATAGTAAATTTATTATTCGGAGTCACCTAGTGCAG | 7320 fluorescence intensity (a.u.)
TAATAAATCAAAACTAATAAATCAAAACAGCTTATCAAGACGGAGTCACCTAGTGCAG | 3350 fluorescence intensity (a.u.)
TCCACTAATTGCGATTATTGCCATCTATTTTCAAGATTACCGGAGTCACCTAGTGCAG | 24700 fluorescence intensity (a.u.)
AGAATGGAAATTGAATGAAATCTACTCGGAGCAATTGAGACGGAGTCACCTAGTGCAG | 7260 fluorescence intensity (a.u.)
GCAAGTATGATTACATAATGATCAGCGTGTTTATGATAAACGGAGTCACCTAGTGCAG | 10200 fluorescence intensity (a.u.)
TTGTTAGATAACCAATTAATCAATTTTAATGCAATAACAACGGAGTCACCTAGTGCAG | 12200 fluorescence intensity (a.u.)
AACATAATTACTATTTTCTGGTTTCATAAACTTCGATACACGGAGTCACCTAGTGCAG | 22100 fluorescence intensity (a.u.)
GAACATCCACGTGATTGCAAATCATCAAAGCAAATAAGAGCGGAGTCACCTAGTGCAG | 28200 fluorescence intensity (a.u.)
GCCCACTTGTCAATCTCTCTTTCTCTGTTCTTCTTCGACACGGAGTCACCTAGTGCAG | 4840 fluorescence intensity (a.u.)
TTTAATTATTCTTCTTCCTCCTAATGCGCTCACTGGTCACCGGAGTCACCTAGTGCAG | 16900 fluorescence intensity (a.u.)
TTTGTAACAGGTAATTTATGGACATTGCAAGGTGGATGGTCGGAGTCACCTAGTGCAG | 17100 fluorescence intensity (a.u.)
AAGATACTACAATTTGATTGCAATAATCCATGATGATCGACGGAGTCACCTAGTGCAG | 4310 fluorescence intensity (a.u.)
AGGAAGGAAGCATTTGATTGATGCAAGGAAGCAAAGAATCCGGAGTCACCTAGTGCAG | 10800 fluorescence intensity (a.u.)
AGTAACCATTGATTGAGTAAGCACTCTAAGATTGGAGCAACGGAGTCACCTAGTGCAG | 27000 fluorescence intensity (a.u.)
CGAACTAACTGATATTCTGATAGACAGTTGAGTTGGCTGACGGAGTCACCTAGTGCAG | 34600 fluorescence intensity (a.u.)
TTATAGAGATTACCACTTTGATTATGCATGTGATTTGCCACGGAGTCACCTAGTGCAG | 20200 fluorescence intensity (a.u.)
TTCTGTTTAATCCATCTTGATTGTATTTCATTAGTTGACACGGAGTCACCTAGTGCAG | 7970 fluorescence intensity (a.u.)
CGGTAACATGCAAATTACAAAAGCATGCTGATACGGAACTCGGAGTCACCTAGTGCAG | 7470 fluorescence intensity (a.u.)

Sequence | binding signal
TATGTAATTTATTTTATTATTAGCCTACATTTAATACTTTCGGAGTCACCTAGTGCAG | 10600 fluorescence intensity (a.u.)
TCTGAATTTAATTCCTGATACATCTACCCATACAAATTTGCGGAGTCACCTAGTGCAG | 4650 fluorescence intensity (a.u.)
CGCGTCAATCACGCTAGCCCACCGGCGCCTTTCCGCCACGCGGAGTCACCTAGTGCAG | 22500 fluorescence intensity (a.u.)
TTAATTTCATTTAAACTAACATTTAATATATTTGATAATACGGAGTCACCTAGTGCAG | 7100 fluorescence intensity (a.u.)
CTAAATCATATGCTAATTTATCAAATTAATCTCGGTTCTACGGAGTCACCTAGTGCAG | 21800 fluorescence intensity (a.u.)
ACATATTTTAATTATATAAAAGATGAGAGAGAAGAGCAGCCGGAGTCACCTAGTGCAG | 3200 fluorescence intensity (a.u.)
TCTATGATGAAGATGATTGTACGTTCACAACTAGTTACCTCGGAGTCACCTAGTGCAG | 22300 fluorescence intensity (a.u.)
TAGCATGATTAATTAAGTATTACTCTAAAGATTTAATGGACGGAGTCACCTAGTGCAG | 37000 fluorescence intensity (a.u.)
GGTGACTTCGTCAATCTCTCCAGAATTTGCCGACCCAGTCCGGAGTCACCTAGTGCAG | 9070 fluorescence intensity (a.u.)
AACAATTTAATGATATTAAAACAAACACAAACACATGTACCGGAGTCACCTAGTGCAG | 3400 fluorescence intensity (a.u.)
GGTAATTGGGCCGTGGTCTAAAGTTAGTGGTCGGTTGAGACGGAGTCACCTAGTGCAG | 14600 fluorescence intensity (a.u.)
CTTCTCGACCAGTGCTGATTGACCAACCAAAACCTCCGATCGGAGTCACCTAGTGCAG | 6250 fluorescence intensity (a.u.)
ACATGTTAACAAAGTCACGTGATTTTAACTGCAGAGGATCCGGAGTCACCTAGTGCAG | 8570 fluorescence intensity (a.u.)
TCATGTTGGCATTTTATCAATCACGTTTTGGGATGACATTCGGAGTCACCTAGTGCAG | 12200 fluorescence intensity (a.u.)
ATTATTGAAATCACGATATATCGCATTCACATAACACGTACGGAGTCACCTAGTGCAG | 11800 fluorescence intensity (a.u.)
TTTAGATGTACATTAATTGAGCTGCAATAATAGAGTTGTTCGGAGTCACCTAGTGCAG | 23800 fluorescence intensity (a.u.)
CAGAAATTTGACAGGCAACCAACTGAATGGAACAATTCCACGGAGTCACCTAGTGCAG | 16700 fluorescence intensity (a.u.)
CACCAAAGTTGACTGATTGCTACACTCTGAAACTAATCAGCGGAGTCACCTAGTGCAG | 18500 fluorescence intensity (a.u.)
TTTAATAACGAAAACATAATTAATTATACTAATAGGGTTTCGGAGTCACCTAGTGCAG | 22300 fluorescence intensity (a.u.)
ATTAAACTTTCAATTTTGGTGTGTTTATTGCCAATGTTTGCGGAGTCACCTAGTGCAG | 4530 fluorescence intensity (a.u.)
ATGTAGATTTGAAATTCTCCGACAGCCGACAGGTGACAAACGGAGTCACCTAGTGCAG | 4250 fluorescence intensity (a.u.)

Sequence | binding signal
AGTAGTAATGAATTTAATGAATCATGATGTTCCAGAGCATCGGAGTCACCTAGTGCAG | 3870 fluorescence intensity (a.u.)
TATTCGCAAATTTAATTCCGTTAATGAATCTATACACATACGGAGTCACCTAGTGCAG | 3880 fluorescence intensity (a.u.)
TAATAACTCGTAATTTTATAATATTAAGTACATTATTCATCGGAGTCACCTAGTGCAG | 3380 fluorescence intensity (a.u.)
TTCTAATTGAAACAGTTTGTATTACAGATCACACATCTTCCGGAGTCACCTAGTGCAG | 47900 fluorescence intensity (a.u.)
CTGTTCAATTATTGAAGATTTGTGAAACTTGTCCGATTTTCGGAGTCACCTAGTGCAG | 26300 fluorescence intensity (a.u.)
CGCCAATTACAAATAGATAGAACCCTCGCCGAGCCGGTAACGGAGTCACCTAGTGCAG | 22000 fluorescence intensity (a.u.)
ATTGACGGCGGATTGACCGTTATCGCAGGTCTCAGCCATACGGAGTCACCTAGTGCAG | 11800 fluorescence intensity (a.u.)
CTCATGTTGATTAGGATGTTATATCAGCGAAATCAATTCACGGAGTCACCTAGTGCAG | 24100 fluorescence intensity (a.u.)
TTGAAAATTGATCCATTTGGAGTAAGCCTTTGTTGTTAAACGGAGTCACCTAGTGCAG | 8320 fluorescence intensity (a.u.)
TGATGTAATTAACATTCCAATTATTGTTTAGAATCATGCGCGGAGTCACCTAGTGCAG | 36100 fluorescence intensity (a.u.)
GAAGACGACTGATCAATTGATCAAACCGATCTCTCCATAGCGGAGTCACCTAGTGCAG | 8410 fluorescence intensity (a.u.)
GGTGATGATTGATGAAGCATATGATGTGTCGCTAAATGCTCGGAGTCACCTAGTGCAG | 28400 fluorescence intensity (a.u.)
CAGATGATTAATCTATGATTTAAATTATCCCTATTCTTTTCGGAGTCACCTAGTGCAG | 40100 fluorescence intensity (a.u.)
ACTAATTTGCTGCAGTTGCATGGCATCCCTGTCAGTTCCTCGGAGTCACCTAGTGCAG | 30300 fluorescence intensity (a.u.)
GTTTATTGGCTAGCTAATAATCTAGTGCTATAATTAGCGCCGGAGTCACCTAGTGCAG | 5940 fluorescence intensity (a.u.)
CAATTTTAATTTATAGGCCGAATTCAATCCAGGAAAAGAGCGGAGTCACCTAGTGCAG | 10200 fluorescence intensity (a.u.)
TTAGACGTGATAGAGTGTAAAGTTTTACAGGATCTAAACACGGAGTCACCTAGTGCAG | 6860 fluorescence intensity (a.u.)
CAGCAAATTAAGTCACTGTTTAGATTCCACCTTAAAATTTCGGAGTCACCTAGTGCAG | 5180 fluorescence intensity (a.u.)
AGTGATTTACATTTTGTGTGCACTATGATGGAATCGCTTTCGGAGTCACCTAGTGCAG | 43100 fluorescence intensity (a.u.)
TAATTAATTAATTGATTGATTGATTTGAAACTGATTAATTCGGAGTCACCTAGTGCAG | 56200 fluorescence intensity (a.u.)
CAACTTAAACAGAACAGTAACACAAACCGTGACGAAATTGCGGAGTCACCTAGTGCAG | 4880 fluorescence intensity (a.u.)

Sequence | binding signal
CTGTACAAATTTGTCGAAATGACCAAAATACCCCTATGACCGGAGTCACCTAGTGCAG | 4660 fluorescence intensity (a.u.)
ATAAATTAATTTAGAATAAAATGTGACACATCCTAATACTCGGAGTCACCTAGTGCAG | 34900 fluorescence intensity (a.u.)
ACTAAAATTATGTAGAAGAAATGCAATACAGGTTGCCGTACGGAGTCACCTAGTGCAG | 3360 fluorescence intensity (a.u.)
GATATATATTAATTAATCAAATCAATCGAAGAAAATTTCACGGAGTCACCTAGTGCAG | 19900 fluorescence intensity (a.u.)
TCCATGATTAGTCATAAGCGCTACAGTAATTCACATATGCCGGAGTCACCTAGTGCAG | 30500 fluorescence intensity (a.u.)
ACTTCTATAACACCAAATTAATTAGTTTCATTAAATGTAACGGAGTCACCTAGTGCAG | 12000 fluorescence intensity (a.u.)
ACGCATGACTAATCAACGTCGCTACAAGGTCCGAGAACAGCGGAGTCACCTAGTGCAG | 3350 fluorescence intensity (a.u.)
TCAGGACTAACTGATCAATTAATCATTCTTAAGTAATTTTCGGAGTCACCTAGTGCAG | 13000 fluorescence intensity (a.u.)
ACCGGGATTAATTCAATCATTCATTGTGCTTTGAAAGGGCCGGAGTCACCTAGTGCAG | 37200 fluorescence intensity (a.u.)
TTTTCTGGTGGCAAGATGATTGAGATATACACCTTGAAGTCGGAGTCACCTAGTGCAG | 7690 fluorescence intensity (a.u.)
ATTTACAAACTCGTTAATTGATGTAAACATAAGGTTACAACGGAGTCACCTAGTGCAG | 12100 fluorescence intensity (a.u.)
TAGATAGATAGATAGATAGATAGATAGATAGATAGTGAACCGGAGTCACCTAGTGCAG | 32400 fluorescence intensity (a.u.)
AATAATTAAGCTGTTAGCCCACTAAAGGATGGGCCGTTTGCGGAGTCACCTAGTGCAG | 14400 fluorescence intensity (a.u.)
AAACTGACATGATCCGATCAACATGATATATAGGCTAGCCCGGAGTCACCTAGTGCAG | 3200 fluorescence intensity (a.u.)
AATAATGAAAACTCAATCAATCATGCGTTAATACCATCTCCGGAGTCACCTAGTGCAG | 16200 fluorescence intensity (a.u.)
CAAAACAGACGAACAGGTTGAGGAGTGTCATATTCTGGTGCGGAGTCACCTAGTGCAG | 3370 fluorescence intensity (a.u.)
CTTTTGAGTCTAATTACGCCATGATTTGGCAATGTGGTGCCGGAGTCACCTAGTGCAG | 16800 fluorescence intensity (a.u.)
ATATTAACAGCTCATAAATTTATGAAAACATGTTGATTCGCGGAGTCACCTAGTGCAG | 19200 fluorescence intensity (a.u.)
CCGATAATTAATGAGTTCACGTGCATCAACAATGCTCTACCGGAGTCACCTAGTGCAG | 25900 fluorescence intensity (a.u.)
TATCAATCAAATCGATAATCTTTGAGCAATTCTCTGTTTTCGGAGTCACCTAGTGCAG | 36600 fluorescence intensity (a.u.)
CATAACTTACTATTAATTGTATGGAAAATATTAATGTTTGCGGAGTCACCTAGTGCAG | 23800 fluorescence intensity (a.u.)
